Data from article PMC7819943, “Rice protein-binding microarrays: a tool to detect cis-acting elements near promoter regions in rice”.
The list shows a part of the results.

Each sequence was assayed against T1, OsWOX13 (Oryza sativa, UniProt Q5QMM3 1-267) (assay: protein-binding microarray (RPBM); PBS, 2% BSA, 51.3 ng/ul salmon testes DNA, 50 uM zinc acetate, 200 nM TF, 25 C, 1 h; high values mean tight binding). Details: protein: recombinant; tags: N-terminal polyhistidine and DsRed monomer fusion (pET32a); label: CyDye5-dUTP incorporated in the synthesized complementary strand; 3' TTTTT single-stranded linker to array surface; dsDNA, one strand shown.
T1 sequence: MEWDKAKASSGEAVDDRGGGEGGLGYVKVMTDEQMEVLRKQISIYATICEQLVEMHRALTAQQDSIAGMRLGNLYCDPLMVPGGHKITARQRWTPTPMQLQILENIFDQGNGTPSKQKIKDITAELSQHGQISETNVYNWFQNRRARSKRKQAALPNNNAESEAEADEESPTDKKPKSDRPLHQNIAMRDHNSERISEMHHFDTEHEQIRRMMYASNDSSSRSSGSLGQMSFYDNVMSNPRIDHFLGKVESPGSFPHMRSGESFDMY
Outline: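 An Axon 4000B scanner gave the binding signal as per-feature fluorescence intensity in arbitrary units. This followed washing of a custom Agilent array that had been incubated for 1 h at 25 °C with 200 nM protein in PBS, 2% BSA, salmon testes DNA and 50 µM zinc acetate. The proteins were transcription factors fused at the N-terminus to polyhistidine and DsRed, expressed in E. coli BL21-CodonPlus and purified on Ni–NTA.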

First: GATAGTGGATTGATTGTCCATCCACATTGATGTCGAATCTCGGAGTCACCTAGTGCAG
Second: TTCCACCATGTTTCAATCATTAGGGAAATCCGTGTACGCTCGGAGTCACCTAGTGCAG
The binding signal of the first is higher: 39300 fluorescence intensity (a.u.) for the first, 7870 fluorescence intensity (a.u.) for the second.

Compared with “ACACTCTGATTTGTGCAGAGATGTTTATATCCATGCTGATCGGAGTCACCTAGTGCAG”, “TTTTAATTTTCTGTACTCTCGTCGGCCAACGCAGCCAGTTCGGAGTCACCTAGTGCAG” is lower in binding signal: 10800 fluorescence intensity (a.u.) for the first, 4450 fluorescence intensity (a.u.) for the second.

First: TCTGATCGACGGTCCCGATTGATCCGTACCTGTACAGAAGCGGAGTCACCTAGTGCAG
Second: ATATGATTAATAAAATAAACTTATTTCGAGATAAATAGGACGGAGTCACCTAGTGCAG
The binding signal of the first is lower: 4650 fluorescence intensity (a.u.) for the first, 30400 fluorescence intensity (a.u.) for the second.

Compared with “GGGAGCAATTTAGTCTGTATAATAAAATTATTATTATGAGCGGAGTCACCTAGTGCAG”, “TAACGGGCAAGTAATTTAATTATTACCATCTCTCACAGCCCGGAGTCACCTAGTGCAG” is higher in binding signal: 5930 fluorescence intensity (a.u.) for the first, 10100 fluorescence intensity (a.u.) for the second.

First: CTATGATTATTAGTCAAAAGCTACCAAGTTTGATTTTCCTCGGAGTCACCTAGTGCAG
Second: TTGGCTATTAGATTGATTTAAAGCTAGTAGTGGGCTGTACCGGAGTCACCTAGTGCAG
The binding signal of the first is higher: 30900 fluorescence intensity (a.u.) for the first, 27800 fluorescence intensity (a.u.) for the second.

Compared with “GGCGACTCATGAAATTGATTCCATCGCGCTCGTTGATAGGCGGAGTCACCTAGTGCAG”, “TTGATGGACATGAATGAATGGAACATGAGAAAGTCGTATTCGGAGTCACCTAGTGCAG” is higher in binding signal: 6120 fluorescence intensity (a.u.) for the first, 19300 fluorescence intensity (a.u.) for the second.

Compared with “AATCTTGATTTGTCTACAGATAATCTCTCACACCTTATCTCGGAGTCACCTAGTGCAG”, “ATTGACAGCGATAGTCGCACGGGTTCTTGCTTATTTGGATCGGAGTCACCTAGTGCAG” is lower in binding signal: 17200 fluorescence intensity (a.u.) for the first, 12400 fluorescence intensity (a.u.) for the second.

Going from “ATATATTGTTAATGATTATAATAGATGACCTGAACTGAGACGGAGTCACCTAGTGCAG” to “GGGTTGATTTTGCTTCCTGCATCCCAGCGACATCGCCCAACGGAGTCACCTAGTGCAG”, the binding signal falls from 19600 fluorescence intensity (a.u.) to 3960 fluorescence intensity (a.u.).

Compared with “CTGGATTGGTGATTGATTATCCGAGCAAGCAAAGACGATGCGGAGTCACCTAGTGCAG”, “CTTAATTAGGCTCAAATAATTCGTCTCGTGGTTTCCAATCCGGAGTCACCTAGTGCAG” is lower in binding signal: 63800 fluorescence intensity (a.u.) for the first, 21700 fluorescence intensity (a.u.) for the second.

Compared with “TAGCAAATTATATTTCTTTAATTAATAACATGGAAATAGACGGAGTCACCTAGTGCAG”, “CTATGCATTTAATTAATTAGGAGAAAACTCCATATTACACCGGAGTCACCTAGTGCAG” is higher in binding signal: 13300 fluorescence intensity (a.u.) for the first, 23300 fluorescence intensity (a.u.) for the second.

First: TGTCAATCAACGAAAGCTCAAGGCGGTTTCTTCTCCGGTGCGGAGTCACCTAGTGCAG
Second: TCTTTTAATTTTGAAAATTAAGCGTTTCAGATGGTTGAGACGGAGTCACCTAGTGCAG
The binding signal of the first is higher: 33000 fluorescence intensity (a.u.) for the first, 6920 fluorescence intensity (a.u.) for the second.

First: ATATACATTTAATTCTATTTGATTTTCTGTTTCACATCTTCGGAGTCACCTAGTGCAG
Second: CTCGTCCAAATTTGATTTTGCAAACTATAGGGTAGATGATCGGAGTCACCTAGTGCAG
The binding signal of the first is lower: 7400 fluorescence intensity (a.u.) for the first, 8770 fluorescence intensity (a.u.) for the second.

Going from “GAGGCACTGATTGTAGACAGGTGAAAGTTAAAAGCGAGAGCGGAGTCACCTAGTGCAG” to “GGGTAATTTCTGGGATAGGTTTATCAGAATTGCAAAATTGCGGAGTCACCTAGTGCAG”, the binding signal falls from 9400 fluorescence intensity (a.u.) to 7430 fluorescence intensity (a.u.).

Going from “ATGATTTATTATGTTCTGCCCTTCTTTGTTGTGACAAAGTCGGAGTCACCTAGTGCAG” to “TTGACTGGGTGACAATAGACGGGCAAATCGTTGGTGCCTGCGGAGTCACCTAGTGCAG”, the binding signal rises from 4960 fluorescence intensity (a.u.) to 9780 fluorescence intensity (a.u.).

Going from “TTATTGTGCATTTAATTGGTTAACTACAACAGTGTGCCGACGGAGTCACCTAGTGCAG” to “ACACAAACAGACTGGAAATTAGAGACTATTAAGTGTGGCGCGGAGTCACCTAGTGCAG”, the binding signal rises from 11200 fluorescence intensity (a.u.) to 29100 fluorescence intensity (a.u.).

Compared with “ACTAGATAGTAATTGTATAGTATATTTTATTGGTAACTATCGGAGTCACCTAGTGCAG”, “TCCTACTAATTTGGAAAAGGAAAATTGGAATCCGTCTCATCGGAGTCACCTAGTGCAG” is higher in binding signal: 8420 fluorescence intensity (a.u.) for the first, 12800 fluorescence intensity (a.u.) for the second.

Going from “TGAATCAAATGATAGGAAAATAATTAATAATTCCTTAAATCGGAGTCACCTAGTGCAG” to “TTGTCATCAAATTTTGATCAAACTATTTATTGATCTTTTACGGAGTCACCTAGTGCAG”, the binding signal falls from 5570 fluorescence intensity (a.u.) to 3570 fluorescence intensity (a.u.).

First: CCCACAGCCAATTACACGATTTTGGGGTGTCCTGTAGCAACGGAGTCACCTAGTGCAG
Second: TATTGTAATTATAATATATTTACAATACAATTACATTATGCGGAGTCACCTAGTGCAG
The binding signal of the first is lower: 3580 fluorescence intensity (a.u.) for the first, 19300 fluorescence intensity (a.u.) for the second.

Compared with “GAAATAGATTAATTATAGCTAAAACATTTTCTCGACCTTGCGGAGTCACCTAGTGCAG”, “ACATATAAGTTACAGTGTAATTACACTATAATTGTACTATCGGAGTCACCTAGTGCAG” is lower in binding signal: 52800 fluorescence intensity (a.u.) for the first, 8520 fluorescence intensity (a.u.) for the second.

Compared with “TCAATGTCTTGACAGATTTAGAACACTTACAAAGTTACTGCGGAGTCACCTAGTGCAG”, “ACAAAACTACAAATTTAACAATAAACTTATCACAAAACTACGGAGTCACCTAGTGCAG” is higher in binding signal: 3620 fluorescence intensity (a.u.) for the first, 3930 fluorescence intensity (a.u.) for the second.

First: TTCTTGACAACCTGCAAACAAAGCAATTAGCAAGGTGCAGCGGAGTCACCTAGTGCAG
Second: TTCAATCAATTTAAGAAGTAGACGCTACCTTATAAGACAACGGAGTCACCTAGTGCAG
The binding signal of the first is lower: 3240 fluorescence intensity (a.u.) for the first, 18600 fluorescence intensity (a.u.) for the second.
